# Reference: the supplement of paper PMC8728848
# The other results are listed elsewhere or left out.
# B1: Surfactant Protein D (Human); Neck + Carbohydrate Recognition Domain (NCRD) (Homo sapiens) (protein)
# chain: MLLFLLSALVLLTQPLGYLEAEMKTYSHRTMPSACTLVMCSSVESGLPGRDRDGREGPRGEKGDPGLPGAAGQAGMPGQAGPVGPKGDNGSVGEPGPKGDTGPSGPPGPPGVPGPAGREGALGKQGNIGPQGKPGPKGEAGPKGEVGAPGMQGSAGARGLAGPKGERGVPGERGVPGNTGAAGSAGAMGPQGSPGARGPPGLKGDKGIPGDKGAKGESGLPDVASLRQQVEALQGQVQHLQAAFSQYKKVELFPNGQSVGEKIFKTAQFVKPFTEAQLLCTQAGGQLASPRSAAENAALQQLVVAKNEAAFLSMTDSKTEGKFTYPTGESLVYSNWAPGEPNDAGGSEDCVEIFTNGKWNDRACGEKRLVVCEF
# What was measured:
# Assay in all cases: glycan array binding signal (z-score within array); higher = stronger binding
# Conditions in all cases: glycan notation: IUPAC condensed, linker removed; mutation: D325A
# [1] = biological target: Gal(b1-3)[Fuc(a1-4)]GlcNAc(b1-3)Gal(b1-4)[Fuc(a1-3)]GlcNAc
# How it was run: (§1)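 The Consortium for Functional Glycomics database supplied 3228 glycan arrays, of which those lacking an available protein sequence were dropped. The binding signal, a within-array Z-score, was averaged across arrays of the same protein sequence and across linkers. Negative scores can be read as non-binding.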
# [2] = biological target: Gal(b1-3)[GlcNAc(b1-6)]GalNAc
# How it was run: as §1
# [3] = biological target: Gal(b1-3)[Neu5Ac(a2-6)]GalNAc
# How it was run: as §1
# [4] = biological target: Gal(b1-3)[Neu5Ac(a2-6)]GlcNAc(b1-6)Gal(b1-4)Glc
# How it was run: as §1
# [5] = biological target: Gal(b1-3)[Neu5Ac(b2-6)]GalNAc
# How it was run: as §1
# [6] = biological target: Gal(b1-4)GalNAc(a1-3)[Fuc(a1-2)]Gal(b1-4)GlcNAc
# How it was run: as §1
# [7] = biological target: Gal(b1-4)GalNAc(b1-3)[Fuc(a1-2)]Gal(b1-4)GlcNAc
# How it was run: as §1
# Gal(b1-4)Glc = biological target: Gal(b1-4)Glc
# How it was run: as §1
# Gal(b1-4)Glc6S = biological target: Gal(b1-4)Glc6S
# How it was run: as §1
# Gal(b1-4)GlcNAc = biological target: Gal(b1-4)GlcNAc
# How it was run: as §1
# [8] = biological target: Gal(b1-4)GlcNAc(a1-6)Gal(b1-4)GlcNAc
# How it was run: as §1
# [9] = biological target: Gal(b1-4)GlcNAc(b1-2)Man(a1-3)[Gal(b1-4)GlcNAc(b1-2)Man(a1-6)]Man(b1-4)GlcNAc(b1-4)GlcNAc
# How it was run: as §1
# [10] = biological target: Gal(b1-4)GlcNAc(b1-3)Gal(b1-3)GlcNAc
# How it was run: as §1
# [11] = biological target: Gal(b1-4)GlcNAc(b1-3)Gal(b1-4)Glc
# How it was run: as §1
# [12] = biological target: Gal(b1-4)GlcNAc(b1-3)Gal(b1-4)GlcNAc
# How it was run: as §1
# [13] = biological target: Gal(b1-4)GlcNAc(b1-3)Gal(b1-4)GlcNAc(b1-3)Gal(b1-4)GlcNAc
# How it was run: as §1
# [14] = biological target: Gal(b1-4)GlcNAc(b1-3)Gal(b1-4)[Fuc(a1-3)]GlcNAc(b1-3)Gal(b1-4)[Fuc(a1-3)]GlcNAc
# How it was run: as §1
# [15] = biological target: Gal(b1-4)GlcNAc(b1-3)GalNAc
# How it was run: as §1
# [16] = biological target: Gal(b1-4)GlcNAc(b1-3)[Gal(b1-4)GlcNAc(b1-6)]Gal(b1-4)GlcNAc
# How it was run: as §1
# [17] = biological target: Gal(b1-4)GlcNAc(b1-3)[GlcNAc(b1-6)]Gal(b1-4)GlcNAc
# How it was run: as §1
# [18] = biological target: Gal(b1-4)GlcNAc(b1-6)Gal(b1-4)GlcNAc
# How it was run: as §1
# [19] = biological target: Gal(b1-4)GlcNAc(b1-6)Gal(b1-4)GlcNAc(b1-6)GalNAc
# How it was run: as §1
# [20] = biological target: Gal(b1-4)GlcNAc(b1-6)GalNAc
# How it was run: as §1
# [21] = biological target: Gal(b1-4)GlcNAc(b1-6)[Gal(b1-3)]GalNAc
# How it was run: as §1
# Gal3S(b1-3)GalNAc = biological target: Gal3S(b1-3)GalNAc
# How it was run: as §1
# Gal3S(b1-3)GlcNAc = biological target: Gal3S(b1-3)GlcNAc
# How it was run: as §1
# [22] = biological target: Gal3S(b1-3)[Fuc(a1-4)]GlcNAc
# How it was run: as §1
# Gal3S(b1-4)Glc = biological target: Gal3S(b1-4)Glc
# How it was run: as §1
# Gal3S(b1-4)Glc6S = biological target: Gal3S(b1-4)Glc6S
# How it was run: as §1
# Gal3S(b1-4)GlcNAc = biological target: Gal3S(b1-4)GlcNAc
# How it was run: as §1
# Gal3S(b1-4)GlcNAc6S = biological target: Gal3S(b1-4)GlcNAc6S
# How it was run: as §1
# [23] = biological target: Gal3S(b1-4)[Fuc(a1-3)]Glc
# How it was run: as §1
# Gal3S4S(b1-4)GlcNAc = biological target: Gal3S4S(b1-4)GlcNAc
# How it was run: as §1
# Gal3S6S(b1-4)GlcNAc = biological target: Gal3S6S(b1-4)GlcNAc
# How it was run: as §1
# Gal3S6S(b1-4)GlcNAc6S = biological target: Gal3S6S(b1-4)GlcNAc6S
# How it was run: as §1
# Gal4S(b1-4)GlcNAc = biological target: Gal4S(b1-4)GlcNAc
# How it was run: as §1
# Gal4S6S(b1-4)GlcNAc = biological target: Gal4S6S(b1-4)GlcNAc
# How it was run: as §1
binder,measurement,setting,value
B1,glycan array binding signal (z-score),[1],-0.269
same,glycan array binding signal (z-score),[2],-0.274
same,glycan array binding signal (z-score),[3],-0.269
same,glycan array binding signal (z-score),[4],-0.265
same,glycan array binding signal (z-score),[5],-0.271
same,glycan array binding signal (z-score),[6],-0.247
same,glycan array binding signal (z-score),[7],-0.23
same,glycan array binding signal (z-score),Gal(b1-4)Glc,-0.267
same,glycan array binding signal (z-score),Gal(b1-4)Glc6S,-0.264
same,glycan array binding signal (z-score),Gal(b1-4)GlcNAc,-0.262
same,glycan array binding signal (z-score),[8],-0.27
same,glycan array binding signal (z-score),[9],-0.273
same,glycan array binding signal (z-score),[10],-0.269
same,glycan array binding signal (z-score),[11],-0.27
same,glycan array binding signal (z-score),[12],-0.272
same,glycan array binding signal (z-score),[13],-0.267
same,glycan array binding signal (z-score),[14],-0.152
same,glycan array binding signal (z-score),[15],-0.215
same,glycan array binding signal (z-score),[16],-0.271
same,glycan array binding signal (z-score),[17],-0.273
same,glycan array binding signal (z-score),[18],-0.186
same,glycan array binding signal (z-score),[19],-0.247
same,glycan array binding signal (z-score),[20],-0.267
same,glycan array binding signal (z-score),[21],-0.262
same,glycan array binding signal (z-score),Gal3S(b1-3)GalNAc,-0.274
same,glycan array binding signal (z-score),Gal3S(b1-3)GlcNAc,-0.264
same,glycan array binding signal (z-score),[22],-0.181
same,glycan array binding signal (z-score),Gal3S(b1-4)Glc,-0.271
same,glycan array binding signal (z-score),Gal3S(b1-4)Glc6S,-0.266
same,glycan array binding signal (z-score),Gal3S(b1-4)GlcNAc,-0.249
same,glycan array binding signal (z-score),Gal3S(b1-4)GlcNAc6S,-0.261
same,glycan array binding signal (z-score),[23],-0.256
same,glycan array binding signal (z-score),Gal3S4S(b1-4)GlcNAc,-0.263
same,glycan array binding signal (z-score),Gal3S6S(b1-4)GlcNAc,-0.26
same,glycan array binding signal (z-score),Gal3S6S(b1-4)GlcNAc6S,-0.267
same,glycan array binding signal (z-score),Gal4S(b1-4)GlcNAc,-0.264
same,glycan array binding signal (z-score),Gal4S6S(b1-4)GlcNAc,-0.275
